Measured values published in patent US20210179728A1 (OSE IMMUNOTHERAPEUTICS, published 2021).

Biological target: T1, recombinant hSIRPa (Sino Biologicals, reference 11612-H08H) (human, UniProt P78324, in part)
T1 construct: also called SIRPa-His; human SIRPa-His; not shown: His tag (histidine tail)
Test: ELISA on immobilized SIRPa-His, peroxidase anti-human IgG, DO 450nm [panel PDL1]
Method: Method: For ELISA assay, recombinant hSIRPa (Sino Biologicals, Beijing, China; reference 11612-H08H) was immobilized on plastic at 0.5 μg/ml in carbonate buffer (pH9.2) and different modified anti-SIRPa antibodies were added to measure binding to SIRPa.

B1: modified anti-SIRPa HEFLB antibody with ECD of PDL1 on the light chain (antibody, human IgG4 S228P, kappa)
heavy: EVQLVQSGAEVKKPGESLRISCKASGYSFTSYWVHWVRQMPGKGLEWMGNIDPSDSDTHYSPSFQGHVTLSVDKSISTAYLQLSSLKASDTAMYYCVRGGTGTLAYFAYWGQGTLVTVSSASTKGPSVFPLAPCSRSTSESTAALGCLVKDYFPEPVTVSWNSGALTSGVHTFPAVLQSSGLYSLSSVVTVPSSSLGTKTYTCNVDHKPSNTKVDKRV[sequence of human IgG4 Fc with S228P L445P (EU numbers) omitted]
light: DVVMTQSPLSLPVTLGQPASISCRSSQSLVHSYGNTYLYWFQQRPGQSPRLLIYRVSNRFSGVPDRFSGSGSGTDFTLKISRVEAEDVGVYYCFQGTHVPYTFGGGTKVEIKRTVAAPSVFIFPPSDEQLKSGTASVVCLLNNFYPREAKVQWKVDNALQSGNSQESVTEQDSKDSTYSLSSTLTLSKADYEKHKVYACEVTHQGLSSPVTKSFNRGECGGGGSGGGGSGGGG[sequence of about 200 residues omitted]
notes: as m32, ECD of PDL1; also called VH+VLprot (PDL1); HEF + LB-PDL1
- binding result: binds
